The values that follow come from article PMC4336329 (PLoS ONE, 2015).

Each structure is given as a SMILES string. Among all 310,000 compounds or so, about 14,000 (4.5%) showed an effect of 50% or more. Effects have a minus sign here. This is one part of the list.
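Further: peak tail current of the secondary pulse compared with the same well before compound.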

For the test, the target named is human ether-à-go-go-related gene (hERG) potassium channel (human, UniProt Q12809). Nature of the test: primary screen, population patch clamp on CHO cells stably expressing hERG.
Chain of human ether-à-go-go-related gene (hERG) potassium channel (Q12809 whole entry, looked up): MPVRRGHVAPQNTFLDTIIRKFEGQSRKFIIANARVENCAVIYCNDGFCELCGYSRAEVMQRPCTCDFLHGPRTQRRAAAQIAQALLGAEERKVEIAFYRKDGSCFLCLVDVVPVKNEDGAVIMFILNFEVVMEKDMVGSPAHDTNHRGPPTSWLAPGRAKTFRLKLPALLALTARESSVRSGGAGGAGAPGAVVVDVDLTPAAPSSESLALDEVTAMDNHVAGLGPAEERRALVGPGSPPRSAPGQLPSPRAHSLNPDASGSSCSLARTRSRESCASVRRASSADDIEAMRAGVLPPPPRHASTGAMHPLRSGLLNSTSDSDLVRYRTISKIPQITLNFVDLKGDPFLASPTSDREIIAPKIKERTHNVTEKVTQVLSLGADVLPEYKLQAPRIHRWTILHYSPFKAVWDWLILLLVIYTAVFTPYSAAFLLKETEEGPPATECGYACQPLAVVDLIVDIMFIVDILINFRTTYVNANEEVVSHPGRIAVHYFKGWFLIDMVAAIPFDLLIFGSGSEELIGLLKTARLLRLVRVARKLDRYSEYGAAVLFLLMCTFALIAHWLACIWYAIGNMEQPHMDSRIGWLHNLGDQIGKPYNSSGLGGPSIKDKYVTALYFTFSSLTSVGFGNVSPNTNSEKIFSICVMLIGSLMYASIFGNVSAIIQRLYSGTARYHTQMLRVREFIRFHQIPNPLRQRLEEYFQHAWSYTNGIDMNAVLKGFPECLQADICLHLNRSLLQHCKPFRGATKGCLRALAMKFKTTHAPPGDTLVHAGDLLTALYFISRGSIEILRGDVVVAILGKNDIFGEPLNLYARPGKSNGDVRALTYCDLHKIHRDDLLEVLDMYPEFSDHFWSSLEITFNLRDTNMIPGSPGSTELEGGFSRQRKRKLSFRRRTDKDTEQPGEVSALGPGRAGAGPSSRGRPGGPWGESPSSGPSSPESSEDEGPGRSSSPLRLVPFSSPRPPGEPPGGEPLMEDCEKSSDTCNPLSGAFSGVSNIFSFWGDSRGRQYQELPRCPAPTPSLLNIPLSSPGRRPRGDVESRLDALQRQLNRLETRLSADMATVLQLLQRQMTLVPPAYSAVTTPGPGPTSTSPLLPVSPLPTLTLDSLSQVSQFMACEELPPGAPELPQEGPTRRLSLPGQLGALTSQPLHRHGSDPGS
As for `COCCN(C(=O)c1cc2c(s1)CCC2)c1c(N)n(CC(C)C)c(=O)[nH]c1=O`, the “hERG current change (%, negative = inhibition) at 10uM” value came out at 0.711%.

On to `COC(=O)c1sccc1NC(=O)NC1CCCCC1`, for which the “hERG current change (%, negative = inhibition) at 10uM” value is -11.1%.

Turning to `NC(=O)[C@H]1CC2(CC(c3cccc(NC(=O)CC(c4ccccc4)c4ccccc4)c3)=NO2)CN1C(=O)CC(c1ccccc1)c1ccccc1` (some centres unmarked), the “hERG current change (%, negative = inhibition) at 10uM” value is listed as 20.9%.

With `O=C(O)c1ccc(Cn2cnc3scc(-c4ccccc4)c3c2=O)cc1`, the “hERG current change (%, negative = inhibition) at 10uM” value is recorded as 20.8%.

Consider `O=C(Nc1ccc(C#Cc2ccccc2)cc1)C1CC1`, for which the “hERG current change (%, negative = inhibition) at 10uM” value was 6.19%.

Regarding `COC(=O)c1ccccc1NC(=S)NC(=O)COc1ccccc1`, the “hERG current change (%, negative = inhibition) at 10uM” value turned out to be 13.4%.

As for `O=C(NC(=S)NN1CCCCC1c1cccnc1)c1ccc(Cl)cc1Cl` (centres unmarked), the “hERG current change (%, negative = inhibition) at 10uM” value is recorded as -6.98%.

As for `O=C(CN1CCN(Cc2ccccc2)CC1)N/N=C/c1cccs1`, the “hERG current change (%, negative = inhibition) at 10uM” value was -22.9%.

For `Cc1ccc(C)c(NC(=S)N/N=C2/CCCCc3ccccc32)c1`, the “hERG current change (%, negative = inhibition) at 10uM” value worked out at 2.67%.

Regarding `Cc1ccc(C2CC(c3cccc(C)c3)n3ncnc3N2)cc1` (centres unmarked), the “hERG current change (%, negative = inhibition) at 10uM” value stood at 2.15%.

Regarding `Cc1cc(=O)n2nc(N3CCCC(C(=O)NC(C)c4ccccc4)C3)sc2n1` (centres unmarked), the “hERG current change (%, negative = inhibition) at 10uM” value is 9.64%.

In the case of `NS(=O)(=O)c1ccc(NC(=O)CSc2ccccc2)cc1`, the “hERG current change (%, negative = inhibition) at 10uM” value was -10.8%.

Take `O=C(NCCCN1CCCCC1)C1CCC(=O)N1CCc1ccccc1` (centres unmarked): the “hERG current change (%, negative = inhibition) at 10uM” value worked out at 22.2%.

With `CCOC(=O)C1=C(C)NC(=O)NC1`, the “hERG current change (%, negative = inhibition) at 10uM” value was -3.56%.

Take `Cc1noc(C)c1COC(=O)CNC(=O)c1cccc(F)c1`: the “hERG current change (%, negative = inhibition) at 10uM” value was 8.98%.

For `CS(=O)(=O)N(CC(=O)N1CCOCC1)c1cc(Cl)ccc1Cl`, the “hERG current change (%, negative = inhibition) at 10uM” value was 7.37%.

For the compound `O=C(O/N=C1\CCCc2ccccc21)c1cccc(Cl)c1`, the “hERG current change (%, negative = inhibition) at 10uM” value is reported as -1.03%.

Consider `CCN(Cc1cnn(C)c1)C(=O)c1cc(COc2ccc(F)cc2F)on1`, for which the “hERG current change (%, negative = inhibition) at 10uM” value is -3.7%.

For `COc1cc2c(cc1OC)C(=O)Cc1ccc3c(c1CN(C)CC2)OCO3`, the “hERG current change (%, negative = inhibition) at 10uM” value was -54.1%.

Take `COc1ccc(C(=O)N/C(=C\c2cn(S(=O)(=O)N(C)C)c3ccccc23)C(=O)N2CCN(C)CC2)cc1`: the “hERG current change (%, negative = inhibition) at 10uM” value is recorded as -50.8%.

Take `COc1ccc(-c2nc3cnccn3c2Nc2ccc(C)cc2)cc1`: the “hERG current change (%, negative = inhibition) at 10uM” value was -10.7%.

On to `COc1cccc(NC(=O)C2CCN(S(C)(=O)=O)CC2)c1`, for which the “hERG current change (%, negative = inhibition) at 10uM” value is recorded as -7.92%.

As for `CCn1ccnc1C(O)c1ccc(N(C)C)cc1` (centres unmarked), the “hERG current change (%, negative = inhibition) at 10uM” value was determined as 19.4%.

In the case of `COc1ccc(N2CCN(c3ncccn3)CC2)cc1`, the “hERG current change (%, negative = inhibition) at 10uM” value is on record as 5.64%.

For `CN(c1ccccc1)S(=O)(=O)c1ccc(C(=O)OCC(=O)NCc2cccs2)cc1`, the “hERG current change (%, negative = inhibition) at 10uM” value was -9.97%.

Take `CC(=O)c1c(C)[nH]c(C(=O)Nc2nc(-c3ccccc3)c(C)s2)c1C`: the “hERG current change (%, negative = inhibition) at 10uM” value is given as -10.2%.

Turning to `CS(=O)(=O)c1ccc(C(=O)OCC(=O)NC(=O)Cc2ccccc2)cc1`, the “hERG current change (%, negative = inhibition) at 10uM” value is -4.76%.

Regarding `O=C(CC(Nc1ccc(F)cc1)C(=O)OCC(=O)c1cccs1)c1ccccc1` (centres unmarked), the “hERG current change (%, negative = inhibition) at 10uM” value came to 2.11%.

`FC(F)(F)c1cccnc1Oc1ccc(C2=NCCS2)cc1`: the “hERG current change (%, negative = inhibition) at 10uM” value was -5.76%.

As for `COc1ccc(CNC(=O)C(C)n2nc(C)c3c(C)n(-c4ccccc4)nc3c2=O)c(OC)c1` (centres unmarked), the “hERG current change (%, negative = inhibition) at 10uM” value is -8.08%.

Turning to `COc1ccc(C2=NC(C)(C)Cc3cc(OC)c(OC)cc32)cc1OC.Cl`, the “hERG current change (%, negative = inhibition) at 10uM” value is reported as -35.7%.

Take `O=C(CSc1nc2ccccc2n1CC(=O)NCc1ccccc1)NCc1ccco1`: the “hERG current change (%, negative = inhibition) at 10uM” value is recorded as -20.2%.

With `O=C(NCCN1CCOCC1)c1ccc(Cl)cc1O`, the “hERG current change (%, negative = inhibition) at 10uM” value is 14.5%.

Regarding `O=C(NC(N1CCOCC1)C(Cl)(Cl)Cl)c1ccccc1Cl` (centres unmarked), the “hERG current change (%, negative = inhibition) at 10uM” value was -0.226%.

As to `COc1ccccc1NC(=O)CSc1nc2nccnc2c(=O)n1Cc1cccs1`, the “hERG current change (%, negative = inhibition) at 10uM” value is listed as -69.9%.

With `O=C(Cc1csc(-c2ccccc2)n1)NCc1ccco1`, the “hERG current change (%, negative = inhibition) at 10uM” value is -1.66%.

Regarding `O=C1c2ccccc2C2=Nc3ccccc3SC(c3ccccc3F)C12` (centres unmarked), the “hERG current change (%, negative = inhibition) at 10uM” value was -23%.

For the compound `CN(C)c1ccc(NC2=C([N+](=O)[O-])CS(=O)(=O)C2)cc1`, the “hERG current change (%, negative = inhibition) at 10uM” value turned out to be 0.495%.

As for `O=C(Nc1ccccc1-c1nc2ccccc2s1)c1cccnc1Cl`, the “hERG current change (%, negative = inhibition) at 10uM” value was found to be 8.07%.

Consider `COc1ccc(C(=O)N2CCC(n3nccc3NC(=O)C3CC3)CC2)c(OC)c1OC`, for which the “hERG current change (%, negative = inhibition) at 10uM” value was found to be 24.7%.

For the compound `CC(=O)C1=C(O)C(=O)N(c2ccc(Br)cn2)C1c1ccc(Br)cc1` (centres unmarked), the “hERG current change (%, negative = inhibition) at 10uM” value is on record as 11.3%.

On to `O=C1CCC(C(=O)N(Cc2cccs2)C2(C(=O)NC3CCCCC3)CCCCC2)N1` (centres unmarked), for which the “hERG current change (%, negative = inhibition) at 10uM” value is on record as 9.76%.

`CSc1cccc(NS(=O)(=O)c2ccc3c(c2)CCN3C(C)=O)c1`: the “hERG current change (%, negative = inhibition) at 10uM” value worked out at 8.02%.

For the compound `CS(=O)(=O)N(CC(=O)NCc1ccco1)c1ccccc1Cl`, the “hERG current change (%, negative = inhibition) at 10uM” value is 0.699%.

With `Cc1cc(C)c(S(=O)(=O)Nc2ncn[nH]2)cc1C`, the “hERG current change (%, negative = inhibition) at 10uM” value stood at 42.8%.

On to `Fc1ccccc1CSc1nnc(Cn2cnc3ccccc32)n1-c1ccccc1`, for which the “hERG current change (%, negative = inhibition) at 10uM” value is -30.2%.

Turning to `CCOc1cccc2cc(C(=O)N3CC(C)OC(C)C3)c(=O)oc12` (centres unmarked), the “hERG current change (%, negative = inhibition) at 10uM” value is recorded as 5.99%.

In the case of `Cc1ccc(C(=O)CSc2nccn2-c2ccccc2)cc1`, the “hERG current change (%, negative = inhibition) at 10uM” value is listed as -6.39%.

Take `COCCNC(=O)c1ccc(-c2csc(C)n2)cc1`: the “hERG current change (%, negative = inhibition) at 10uM” value is reported as 13.2%.

On to `CC(C)(C)c1ccc(OCCOc2ccc(C(C)(C)C)cc2NC=O)c(NC=O)c1`, for which the “hERG current change (%, negative = inhibition) at 10uM” value was 21.1%.

As for `Cc1cc(-n2cnc3c(=O)[nH]cnc32)ccc1N`, the “hERG current change (%, negative = inhibition) at 10uM” value turned out to be 15%.

As to `COC(=O)N/N=C/c1cc(Cl)cc(Cl)c1OCc1ccccc1F`, the “hERG current change (%, negative = inhibition) at 10uM” value worked out at 14.4%.

On to `FC(F)(F)c1cccc(N2Cc3ccccc3C2)c1`, for which the “hERG current change (%, negative = inhibition) at 10uM” value turned out to be 6.28%.

Regarding `CC1=C(CC(=O)O)c2cc(F)ccc2/C1=C/c1ccc(S(C)(=O)=O)cc1`, the “hERG current change (%, negative = inhibition) at 10uM” value was 11.5%.

Consider `CC1CCC2(CC1)NC(=O)N(CC(=O)c1ccc(CNC(=O)C(C)(C)C)s1)C2=O` (centres unmarked), for which the “hERG current change (%, negative = inhibition) at 10uM” value is -10.9%.

With `O=C(CSc1nc2ccccc2c(=O)n1CCCN1CCOCC1)Nc1ccc2c(c1)OCO2`, the “hERG current change (%, negative = inhibition) at 10uM” value was -43.6%.
